# Source: PubChem BioAssay AID686979 (National Center for Advancing Translational Sciences (NCATS), 2013)
# About 50,000 (12%) of roughly 420,000 compounds were called active. The shares of active, inactive and inconclusive entries below differ from those in the screen. Calls follow the shape of the dose curve; as a rule, active = well fitted inhibition curve with a large enough effect; inconclusive = small, poorly fitted or top-dose-only effect; inactive = flat fitted curve, though single readings scatter. Potencies of inconclusive entries are left out as doubtful fits.
# Experiment: qHTS for Inhibitors of human tyrosyl-DNA phosphodiesterase 1 (TDP1): qHTS in cells in presence of CPT; also: nearly all actives have a fitted effect of over 55% in size
# Conditions: chicken DT40 Tdp1-/-;hTDP1 cells + 20 nM CPT, ATP luminescence, 48 h; activity change, negative = growth inhibition: at 46.2 µM (top of the series)
# From the text: Human tyrosyl-DNA phosphodiesterase 1 (TDP1) is a novel repair gene, and we propose to use it as a new target for anticancer drug development. TDP1 is not an essential protein, but under treatment with topoisomerase I poison (camptothecin: CPT), TDP1 works as a critical factor for cell survival. To directly identify novel TDP1 inhibitors active in a cellular environment, we have knocked-out the Tdp1 gene in chicken DT40 cells (Tdp1-/-) and generated a complemented counterpart cells that contains a stable transfection of the human TDP1 gene (Tdp1-/-;hTDP1 cells). For the primary screen, Tdp1-/-;hTDP1 cells will be exposed to small molecules in the presence or absence of CPT, and their growth kinetics will be evaluated after 48 hours by measuring ATP activity. […] The hit compounds will then be evaluated in the presence or absence of CPT using Tdp1-/- cells. […] In tertiary assays, biochemical gel-based assays will be used to assess whether the hit compounds specifically target TDP1. To this end, we have screened this cell line against the MLSMR in two primary screens. In one screen we add CPT and in the other we screen in the absence of CPT; this AID represents the screen where CPT was present. NIH Chemical Genomics Center [NCGC] NIH Molecular Libraries Probe Centers Network [MLPCN] MLPCN Grant: MH095538 Assay Submitter (PI): Yves Pommier, NCI
# DT40-hTDP1 cells with 20 nM Camptothecin (add 20 microL of 1 mM CPT stock in 1 L of cell culture medium) were dispensed at 400 cells/5microL/well in tissue culture treated 1536-well white wall/solid bottom assay plates (Greiner Bio-One North America, NC, U.S.A.) using a Multidrop Combi 8 channel dispenser (Thermo Fisher, Waltham, MA, USA). 23 nL compounds and controls were transferred using the pin tool (Kalypsys, San Diego, CA, USA) to the assay plates. The assay plates were then incubated at 37 masculineC for a minimum 48 hr. Three microL of Cell Titer Glo solution was added to the plates and incubated at RT in dark for 30 min. Luminescence was read using ViewLux (Perkin Elmer) with 1 sec exposure slow speed, high gain and 2x binning.
# % is scaled to controls: 0 for no effect and ±100 for the full control effect; potency is read from the fitted curve at half-maximal effect; tags tell the direction and shape of the fitted curve.
SMILES,Potency,"activity change, negative = growth inhibition"
COc1cc(-c2cnc3c(NC=O)cc(-c4cccc(C(=O)NCCN(C)C)c4)cn23)cc(OC)c1OC,"inconclusive [inhibitor, single point]",–
CCn1nc(-c2ccccc2C)nc2c(=O)n(C)c(=O)nc1-2,active: 1 µM,–
COc1ccc(/C=C/C(=O)Nc2nc3n(n2)C(c2ccccc2)C=C(c2ccccc2)N3)cc1 (stereo unspecified),active: 7.31 µM,–
COc1nc(=O)n(C2C=CC(=O)O2)cc1F (stereo unspecified),active: 2.31 µM,–
CCN(C(=O)Cn1c(=O)oc2cc(Cl)ccc21)c1cccc(C(F)(F)F)c1,"inconclusive [inhibitor, single point]",–
Cc1cc(Nc2ccc(F)c(F)c2)nc(-c2ccccc2O)n1,–,inactive: -20.6%
C(=N\Nc1nc(-c2ccccc2)cs1)/c1cccs1,"inconclusive [inhibitor, single point]",–
CC(=O)Nc1ccc(S(=O)(=O)N2CCCc3ccccc32)cc1,active: 6.51 µM,–
COc1ccc(-c2csc(N3N=C(C)C(C)C3=O)n2)cc1 (stereo unspecified),"inconclusive [inhibitor, single point]",–
Cc1ccc(S(=O)(=O)Nc2cccc(-c3ccc4nncn4n3)c2)cc1,active: 1.84 µM,–
CCOC(=O)c1c(-c2ccc(OC)cc2)csc1NC(=O)CSc1ncnc2sccc12,"inconclusive [inhibitor, single point]",–
C=CCNC(=S)N1CCC(C(=O)c2ccc(C)cc2)CC1,active: 25.9 µM,–
Cc1nnn(C23CC4CC(CC(CC(=O)Nc5ccc(C)c(Cl)c5)(C4)C2)C3)n1,"inconclusive [inhibitor, single point]",–
COc1ccc2cc(/C=C3\SC(=S)NC3=O)c(N3CCOCC3)nc2c1,"inconclusive [inhibitor, single point]",–
CN(Cc1ccccc1)Cc1nc2scc(-c3ccccc3)c2c(=O)[nH]1,active: 13 µM,–
COc1ccc(C(=O)C(C)OC(=O)C2CC3CCCC(C2)C3=O)cc1 (stereo unspecified),"inconclusive [inhibitor, partial curve, poor fit]",–
O=S(=O)(c1ccc(Nc2ccc(-c3ccc4c(c3)OCCO4)nn2)cc1)N1CCCC1,"inconclusive [inhibitor, partial curve, poor fit]",–
O=C(NCc1ccccc1Cl)c1cnc2sc(N3CCCCC3)nn2c1=O,active: 13 µM,–

SMILES,Potency,"activity change, negative = growth inhibition"
CCCCn1c(SCC(=O)Nc2cc(C)on2)nc2ccsc2c1=O,"inconclusive [inhibitor, partial curve, poor fit]",–
CC1CCN(Cc2nc3c(c(=O)n(C)c(=O)n3C)n2CCCc2ccccc2)CC1,"inconclusive [inhibitor, partial curve]",–
COc1ccccc1NC(=O)N1CCN(c2cc(-c3ccccc3)nc3ncnn23)CC1,active: 4.61 µM,–
O=C1NC(Cc2ccc(O)cc2)c2nc3ccc(Cl)cc3c(=O)n2-c2cc3ccccc3cc21 (stereo unspecified),active: 6.51 µM,–
Clc1ccccc1CNc1nc2ccccc2c2nc(-c3cccnc3)nn12,–,inactive: -19.9%
COc1ccc(Cl)cc1NC(=O)c1c(NCc2sccc2C)sc2c1CCCC2,"inconclusive [inhibitor, single point]",–
O=C(COc1nc2ccccc2nc1N1CCOCC1)Nc1cccc(S(=O)(=O)N2CCCCC2)c1,–,inactive: -19.8%
O=c1cc(-c2ccc(O)cc2)oc2cc(O)c(C3OC(CO)C(O)C(O)C3O)c(O)c12 (stereo unspecified),–,inactive: -28%
COc1ccccc1N(C)S(=O)(=O)c1ccc(C(=O)OCC(=O)Nc2ccccc2F)cc1,–,inactive: -4.67%
CC(C)NC(=O)C1(C)CCN1C(=O)C1(c2ccccc2)CC1 (stereo unspecified),–,inconclusive: -30.7% [inhibitor]
O=C(NCCO)/C(=C/c1ccc2c(c1)OCO2)NC(=O)c1ccc(Br)cc1,"inconclusive [inhibitor, single point]",–
O=C1/C(=C/c2cccs2)CCC1C1CCCC1 (stereo unspecified),"inconclusive [inhibitor, partial curve, poor fit]",–
COc1ccccc1N(CC(=O)NCCN1CCOCC1)S(=O)(=O)c1ccc(C)cc1,–,inactive: -6.03%
Cc1nc2c(n1C1CCCCC1)C(=O)c1ccccc1C2=O,active: 20.6 µM,–
CN1CCN(c2nc3c(c(=O)[nH]c(=O)n3C)n2Cc2ccc([N+](=O)[O-])cc2)CC1,–,inactive: 2.84%
COc1ccc(CN2C(=O)C(CC(=O)NCC3CCCCC3)CC(C(=O)N(C)C)=C2C)cc1 (stereo unspecified),"inconclusive [inhibitor, partial curve]",–
Cc1onc(-c2c(F)cccc2Cl)c1C(=O)NCCCN1CCOCC1,–,inconclusive: -36.5% [inhibitor]
Cc1ccc(C(=O)Nc2ccnc(-c3cccnc3)n2)cc1,"inconclusive [inhibitor, single point]",–
